# This is one part of the list.
# B1: PX15618B-bfa-464-25-464 (Bacteroides fragilis) (protein)
# chain: DQEPPLYVNENDIFTSPTRIEATLNGLYAAIKNTGTKSLMGGKSYLVFDNRGDDVINISNNLVTLFNTYNMNVGITDAENADTWTYAYLAINKVNTFLQSLEGAREVAGENYDRYVQEAKFVRALAYYYLNNLYPTPYSVNPDAKSVPLRLTAEAGTENNNMPRSTVKQIYEHILSDLENISALDTEVNTYTGVTHATQAAANMLKMRVYMAMNEWDKAITAGELVTGYSLPEDVTLIYKAPYFSQESIFSLPMADTNIPNTQQSLAEYYYDGKIMLIDTKSGIMSKPDYSLATDKRIIAFKGEKDLLMKFTDAKTKLQWVPIFRYAETLLDLAECYANKAGGEATAKSLLKQVRGRSVDAATDPLNIDNLSGDALKEAIYNEKRLEFIGEGIRGIDIMRRGEHFIKVGENETINVGPSDEKYTWPIPQVELLLNKDINK
# Assays:
# Test in all cases: glycan array binding signal (z-score within array); higher = stronger binding
# Details in all cases: glycan notation: IUPAC condensed, linker removed
# [1] = molecular target: Fuc(a1-2)[GalNAc(a1-3)]Gal(b1-3)GlcNAc(b1-6)GalNAc
# Procedure, shortened: (§1)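 Glycan array data came from 3228 arrays in the Consortium for Functional Glycomics database, and only arrays with an available protein sequence were kept. Glycan names were put into IUPAC-condensed notation, and columns mapping to the same glycan were averaged. The binding signal is a within-array Z-score, averaged across arrays of one protein sequence run at different concentrations or buffers and across linkers. A negative Z-score can be read as non-binding.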
# [2] = molecular target: Fuc(a1-2)[GalNAc(a1-3)]Gal(b1-4)Glc
# Procedure, shortened: as §1
# [3] = molecular target: Fuc(a1-2)[GalNAc(a1-3)]Gal(b1-4)GlcNAc
# Procedure, shortened: as §1
# [4] = molecular target: Fuc(a1-2)[GalNAc(a1-3)]Gal(b1-4)GlcNAc(b1-2)Man
# Procedure, shortened: as §1
# [5] = molecular target: Fuc(a1-2)[GalNAc(a1-3)]Gal(b1-4)GlcNAc(b1-2)Man(a1-3)[Fuc(a1-2)[GalNAc(a1-3)]Gal(b1-4)GlcNAc(b1-2)Man(a1-6)]Man(b1-4)GlcNAc(b1-4)GlcNAc
# Procedure, shortened: as §1
# [6] = molecular target: Fuc(a1-2)[GalNAc(a1-3)]Gal(b1-4)GlcNAc(b1-2)Man(a1-3)[Fuc(a1-2)[GalNAc(a1-3)]Gal(b1-4)GlcNAc(b1-2)Man(a1-6)]Man(b1-4)GlcNAc(b1-4)[Fuc(a1-6)]GlcNAc
# Procedure, shortened: as §1
# [7] = molecular target: Fuc(a1-2)[GalNAc(a1-3)]Gal(b1-4)GlcNAc(b1-3)Gal(b1-4)GlcNAc
# Procedure, shortened: as §1
# [8] = molecular target: Fuc(a1-2)[GalNAc(a1-3)]Gal(b1-4)GlcNAc(b1-3)Gal(b1-4)GlcNAc(b1-3)Gal(b1-4)GlcNAc
# Procedure, shortened: as §1
# [9] = molecular target: Fuc(a1-2)[GalNAc(a1-3)]Gal(b1-4)GlcNAc(b1-3)GalNAc
# Procedure, shortened: as §1
# [10] = molecular target: Fuc(a1-2)[GalNAc(a1-3)]Gal(b1-4)GlcNAc(b1-3)[Fuc(a1-2)[GalNAc(a1-3)]Gal(b1-4)GlcNAc(b1-6)]GalNAc
# Procedure, shortened: as §1
# [11] = molecular target: Fuc(a1-2)[GalNAc(a1-3)]Gal(b1-4)GlcNAc(b1-6)GalNAc
# Procedure, shortened: as §1
# [12] = molecular target: Fuc(a1-2)[GalNAc(a1-3)]Gal(b1-4)[Fuc(a1-3)]GlcNAc
# Procedure, shortened: as §1
# [13] = molecular target: Fuc(a1-2)[GalNAc(a1-3)]Gal(b1-4)[Fuc(a1-3)]GlcNAc(b1-3)GalNAc
# Procedure, shortened: as §1
# [14] = molecular target: Fuc(a1-2)[GalNAc(a1-4)]Gal(b1-4)GlcNAc
# Procedure, shortened: as §1
# [15] = molecular target: Fuc(a1-2)[GalNAc(b1-3)]Gal
# Procedure, shortened: as §1
# Fuc(a1-3)GlcNAc = molecular target: Fuc(a1-3)GlcNAc
# Procedure, shortened: as §1
# [16] = molecular target: Fuc(a1-3)[Gal(b1-4)]Glc6S
# Procedure, shortened: as §1
# [17] = molecular target: Fuc(a1-3)[Gal(b1-4)]GlcNAc
# Procedure, shortened: as §1
# [18] = molecular target: Fuc(a1-3)[Gal(b1-4)]GlcNAc(b1-2)Man
# Procedure, shortened: as §1
# [19] = molecular target: Fuc(a1-3)[Gal(b1-4)]GlcNAc(b1-2)Man(a1-3)[Fuc(a1-3)[Gal(b1-4)]GlcNAc(b1-2)Man(a1-6)]Man(b1-4)GlcNAc(b1-4)GlcNAc
# Procedure, shortened: as §1
# [20] = molecular target: Fuc(a1-3)[Gal(b1-4)]GlcNAc(b1-2)Man(a1-3)[Fuc(a1-3)[Gal(b1-4)]GlcNAc(b1-2)Man(a1-6)]Man(b1-4)GlcNAc(b1-4)[Fuc(a1-6)]GlcNAc
# Procedure, shortened: as §1
# [21] = molecular target: Fuc(a1-3)[Gal(b1-4)]GlcNAc(b1-3)Gal(b1-3)[Fuc(a1-4)]GlcNAc
# Procedure, shortened: as §1
# [22] = molecular target: Fuc(a1-3)[Gal(b1-4)]GlcNAc(b1-3)Gal(b1-4)[Fuc(a1-3)]GlcNAc
# Procedure, shortened: as §1
# [23] = molecular target: Fuc(a1-3)[Gal(b1-4)]GlcNAc(b1-3)Gal(b1-4)[Fuc(a1-3)]GlcNAc(b1-3)Gal(b1-4)[Fuc(a1-3)]GlcNAc
# Procedure, shortened: as §1
# [24] = molecular target: Fuc(a1-3)[Gal(b1-4)]GlcNAc(b1-3)GalNAc
# Procedure, shortened: as §1
# [25] = molecular target: Fuc(a1-3)[Gal(b1-4)]GlcNAc(b1-6)GalNAc
# Procedure, shortened: as §1
# [26] = molecular target: Fuc(a1-3)[Gal(b1-4)]GlcNAc(b1-6)[Gal(b1-3)GlcNAc(b1-3)]Gal(b1-4)Glc
# Procedure, shortened: as §1
# [27] = molecular target: Fuc(a1-3)[Gal(b1-4)]GlcNAc6S
# Procedure, shortened: as §1
# [28] = molecular target: Fuc(a1-3)[Gal3S(b1-4)]Glc
# Procedure, shortened: as §1
# [29] = molecular target: Fuc(a1-3)[Gal3S(b1-4)]GlcNAc
# Procedure, shortened: as §1
# [30] = molecular target: Fuc(a1-3)[Gal3S(b1-4)]GlcNAc6S
# Procedure, shortened: as §1
# [31] = molecular target: Fuc(a1-3)[GalNAc(b1-4)]GlcNAc
# Procedure, shortened: as §1
# [32] = molecular target: Fuc(a1-3)[GalNAc(b1-4)]GlcNAc6S
# Procedure, shortened: as §1
# Fuc(a1-4)GlcNAc = molecular target: Fuc(a1-4)GlcNAc
# Procedure, shortened: as §1
# Fuc(b1-3)GlcNAc = molecular target: Fuc(b1-3)GlcNAc
# Procedure, shortened: as §1
# Gal(a1-2)Gal = molecular target: Gal(a1-2)Gal
# Procedure, shortened: as §1
# Gal(a1-3)Gal = molecular target: Gal(a1-3)Gal
# Procedure, shortened: as §1
binder,measurement,setting,value
B1,glycan array binding signal (z-score),[1],-0.381
same,glycan array binding signal (z-score),[2],-0.313
same,glycan array binding signal (z-score),[3],-0.278
same,glycan array binding signal (z-score),[4],0.377
same,glycan array binding signal (z-score),[5],0.35
same,glycan array binding signal (z-score),[6],0.319
same,glycan array binding signal (z-score),[7],-0.113
same,glycan array binding signal (z-score),[8],-0.142
same,glycan array binding signal (z-score),[9],0.082
same,glycan array binding signal (z-score),[10],-0.678
same,glycan array binding signal (z-score),[11],-0.477
same,glycan array binding signal (z-score),[12],0.784
same,glycan array binding signal (z-score),[13],0.311
same,glycan array binding signal (z-score),[14],-0.57
same,glycan array binding signal (z-score),[15],-0.115
same,glycan array binding signal (z-score),Fuc(a1-3)GlcNAc,0.247
same,glycan array binding signal (z-score),[16],0.547
same,glycan array binding signal (z-score),[17],-0.675
same,glycan array binding signal (z-score),[18],-0.777
same,glycan array binding signal (z-score),[19],0.386
same,glycan array binding signal (z-score),[20],0.106
same,glycan array binding signal (z-score),[21],0.394
same,glycan array binding signal (z-score),[22],-0.087
same,glycan array binding signal (z-score),[23],-0.73
same,glycan array binding signal (z-score),[24],0.467
same,glycan array binding signal (z-score),[25],-0.191
same,glycan array binding signal (z-score),[26],-0.493
same,glycan array binding signal (z-score),[27],-0.315
same,glycan array binding signal (z-score),[28],-0.196
same,glycan array binding signal (z-score),[29],-0.118
same,glycan array binding signal (z-score),[30],-0.473
same,glycan array binding signal (z-score),[31],1.31
same,glycan array binding signal (z-score),[32],0.174
same,glycan array binding signal (z-score),Fuc(a1-4)GlcNAc,-0.529
same,glycan array binding signal (z-score),Fuc(b1-3)GlcNAc,0.689
same,glycan array binding signal (z-score),Gal(a1-2)Gal,-0.656
same,glycan array binding signal (z-score),Gal(a1-3)Gal,0.348

# Reference: the supplement of paper PMC8728848
